These results are taken from the supplement of paper PMC4604168 (melanoma cell lines).

Common to all, as to assay: cell count relative to DMSO control; melanoma cells; higher = more viable cells
The test system of one experiment is WM115. Particulars: library dose: low library concentration; 72 h.
For a further experiment, the system named is WM1716. Particulars: library dose: low library concentration; 72 h.
The test system of the next experiment is WM1745. The note with it: library dose: low library concentration; 72 h.
The next experiment deals with WM3526. Particulars: library dose: low library concentration; 72 h.
A further experiment concerns WM3619. Particulars: library dose: low library concentration; 72 h.
In another experiment the test system is WM451Lu. The note with it: library dose: low library concentration; 72 h.
For a further experiment, the system named is 501Mel. Particulars: library dose: standard library concentration; 72 h.
The next experiment concerns A101D. Particulars: library dose: standard library concentration; 72 h.
Another experiment concerns A2058. Particulars: library dose: standard library concentration; 72 h.
The subject of the next experiment is A375. The note with it: library dose: standard library concentration; 72 h.

This is one part of the list. Most values come without repeats; read them as rough.

For the compound `Cc1cn(-c2cc(NC(=O)c3ccc(C)c(Nc4nccc(-c5cccnc5)n4)c3)cc(C(F)(F)F)c2)cn1` [nilotinib] + CC(=O)c1c(C)c2cnc(Nc3ccc(N4CCNCC4)cn3)nc2n(C2CCCC2)c1=O [palbociclib] (first compound 0.2 µM, partner dose 0.04 µM), the cell count stood at 89.7% with WM115; 86.9% with WM1716; 70.9% with WM1745; 83.5% with WM3526; 94.1% in the experiment with WM3619; 83.9% in the experiment on WM451Lu.
In the case of `Cc1cn(-c2cc(NC(=O)c3ccc(C)c(Nc4nccc(-c5cccnc5)n4)c3)cc(C(F)(F)F)c2)cn1` [nilotinib] + CN(C)S(=O)(=O)c1ccc2c(c1)/C(=C/c1cc3c([nH]1)CCCC3)C(=O)N2 [SU6656] (first compound 0.2 µM, partner dose 0.4 µM), the cell count in the experiment with WM115 is 81.2%; with WM1716, 120%; with WM1745, 92.9%; in the experiment with WM3526, 101%; in the experiment on WM3619 it was 105%; in the experiment on WM451Lu, 111%.
In the case of `COc1ccc(C2=N[C@@H](c3ccc(Cl)cc3)[C@@H](c3ccc(Cl)cc3)N2C(=O)N2CCNC(=O)C2)c(OC(C)C)c1` [Nutlin-3] + C[C@@H]1CCN(C(=O)CC#N)C[C@@H]1N(C)c1ncnc2[nH]ccc12 [CP690550] (first compound 0.1 µM, partner dose 1 µM), the cell count turned out to be 77.2% with WM115; 80.5% with WM1716; 84% in the experiment with WM1745; 94.6% in the experiment with WM3526; 141% in the experiment with WM3619; 108% in the experiment on WM451Lu.
For `Cc1cc(Nc2cc(N3CCN(C)CC3)nc(/C=C/c3ccccc3)n2)n[nH]1` + CCN(CC)CCCCNc1ncc2cc(-c3cc(OC)cc(OC)c3)c(NC(=O)NC(C)(C)C)nc2n1 [PD173074] (first compound 0.04 µM, partner dose 0.1 µM), the cell count in the experiment with WM115 was determined as 98.5%; with WM1716, 111%; with WM1745, 95.3%; with WM3526, 113%; in the experiment with WM3619, 110%; with WM451Lu it was 95.6%.
As to `Cc1cc(Nc2cc(N3CCN(C)CC3)nc(/C=C/c3ccccc3)n2)n[nH]1` + Cc1ccc(NC(=O)c2cccc(N(C)C)c2)cc1NC(=O)c1ccc(O)cc1 [ZM336372] (first compound 0.04 µM, partner dose 2 µM), the cell count worked out at 86.2% with WM115; 113% in the experiment on WM1716; 77.6% with WM1745; 74.8% with WM3526; 97.3% in the experiment on WM3619; 68.9% with WM451Lu.
For the compound `Cc1cn(-c2cc(NC(=O)c3ccc(C)c(Nc4nccc(-c5cccnc5)n4)c3)cc(C(F)(F)F)c2)cn1` [nilotinib] + O=c1cc(-c2cccc3c2Sc2ccccc2S3)oc(N2CCOCC2)c1 [KU55933] (first compound 0.2 µM, partner dose 1 µM), the cell count with WM115 came to 109%; in the experiment with WM1716, 107%; in the experiment on WM1745, 84.3%; in the experiment with WM3526, 90.7%; with WM3619, 113%; in the experiment on WM451Lu, 114%.
Turning to `CC(C)C[C@H](NC(=O)[C@H](Cc1ccccc1)NC(=O)c1cnccn1)B(O)O` [Bortezomib] + O=S(=O)(c1ccccc1)N(CC(F)(F)F)c1ccc(C(O)(C(F)(F)F)C(F)(F)F)cc1 [T0901317] (first compound 0.001 µM, partner dose 1.4 µM), the cell count in the experiment on WM115 is 105%; in the experiment on WM1716 it was 20.7%; in the experiment with WM1745, 44.6%; with WM3526, 80.2%; in the experiment on WM3619, 13.9%; in the experiment on WM451Lu it was 68.4%.
Turning to `CC(C)C[C@H](NC(=O)[C@H](Cc1ccccc1)NC(=O)c1cnccn1)B(O)O` [Bortezomib] + C#Cc1cccc(Nc2ncnc3cc(OCCOC)c(OCCOC)cc23)c1 [erlotinib] (first compound 0.001 µM, partner dose 0.8 µM), the cell count was 108% in the experiment with WM115; 32% with WM1716; 30.9% with WM1745; 85.5% in the experiment on WM3526; 11.2% in the experiment with WM3619; 84.4% in the experiment on WM451Lu.
On to `Cc1cn(-c2cc(NC(=O)c3ccc(C)c(Nc4nccc(-c5cccnc5)n4)c3)cc(C(F)(F)F)c2)cn1` [nilotinib] + COc1ccc(Cl)c(Nc2nc3ccccc3nc2NS(=O)(=O)c2cccc(NC(=O)C(C)(C)N)c2)c1 [XL147] (first compound 0.2 µM, partner dose 0.8 µM), for which the cell count with WM115 was found to be 112%; in the experiment on WM1745, 85%; in the experiment on WM3526 it was 117%; in the experiment on WM3619 it was 99.7%; with WM451Lu, 66%.
As to `Cn1c(=O)n(-c2ccc(C(C)(C)C#N)cc2)c2c3cc(-c4cnc5ccccc5c4)ccc3ncc21` + CCCCCCCCCCCC1=C(O)C(=O)C=C(O)C1=O [Embelin] (first compound 0.02 µM, partner dose 6 µM), the cell count came to 72.8% in the experiment with 501Mel, 73.5% with A101D, 73.5% in the experiment with A2058 and 92.2% in the experiment with A375.
On to `Cc1cn(-c2cc(NC(=O)c3ccc(C)c(Nc4nccc(-c5cccnc5)n4)c3)cc(C(F)(F)F)c2)cn1` [nilotinib] + COc1cc(N2CCC(N3CCN(C)CC3)CC2)ccc1Nc1ncc(Cl)c(Nc2ccccc2S(=O)(=O)C(C)C)n1 [NVP-TAE684] (first compound 1 µM, partner dose 0.4 µM), for which the cell count in the experiment on 501Mel is 79.9%; in the experiment on A101D, 96.7%; in the experiment with A2058, 93.5%; in the experiment with A375 it was 109%.
As to `Cn1c(=O)n(-c2ccc(C(C)(C)C#N)cc2)c2c3cc(-c4cnc5ccccc5c4)ccc3ncc21` + O=c1cc(-c2cccc3c2Sc2ccccc2S3)oc(N2CCOCC2)c1 [KU55933] (first compound 0.02 µM, partner dose 5 µM), the cell count in the experiment on 501Mel was 69.5%; in the experiment with A101D, 71.3%; in the experiment with A2058 it was 77.8%; in the experiment on A375, 86.4%.
Consider `Cn1c(=O)n(-c2ccc(C(C)(C)C#N)cc2)c2c3cc(-c4cnc5ccccc5c4)ccc3ncc21` + CC(C)CCN1c2nc(Nc3cc(F)c(O)c(F)c3)ncc2N(C)C(=O)C1C [BID1870] (first compound 0.02 µM, partner dose 1 µM), for which the cell count with 501Mel stood at 73.6%; in the experiment with A101D, 69.1%; in the experiment with A2058, 57.8%; in the experiment with A375, 73.3%.
The matching figures for `Cc1cc(Nc2cc(N3CCN(C)CC3)nc(/C=C/c3ccccc3)n2)n[nH]1` + CC(C)CCN1c2nc(Nc3cc(F)c(O)c(F)c3)ncc2N(C)C(=O)C1C [BID1870] (first compound 0.2 µM, partner dose 1 µM): 69.8%, 47.8%, 77% and 85.3%.
On the same counts, the results for `Cc1cn(-c2cc(NC(=O)c3ccc(C)c(Nc4nccc(-c5cccnc5)n4)c3)cc(C(F)(F)F)c2)cn1` [nilotinib] + N#Cc1c(O)c2c(-c3ccc(-c4ccccc4O)cc3)csc2[nH]c1=O [A769662] (first compound 1 µM, partner dose 10 µM) are 95.2%, 93%, 83.8% and 136%.
On the same counts, the results for `CC(C)C[C@H](NC(=O)[C@H](Cc1ccccc1)NC(=O)c1cnccn1)B(O)O` [Bortezomib] + CCc1ccc(CCOc2ccc(CC3SC(=O)NC3=O)cc2)nc1 [pioglitazone] (first compound 0.005 µM, partner dose 10 µM) are 6.07%, 9.26%, 14% and 96.5%.
On to `Cn1c(=O)n(-c2ccc(C(C)(C)C#N)cc2)c2c3cc(-c4cnc5ccccc5c4)ccc3ncc21` + COc1ccc(COc2ccc(Cc3cnc(N)nc3N)cc2OC)cc1 [GW2580] (first compound 0.02 µM, partner dose 5 µM), for which the cell count in the experiment on 501Mel turned out to be 71.3%; in the experiment with A101D, 74.8%; in the experiment on A2058, 65.9%; with A375 it was 87.6%.
The matching figures for `Cc1cc(Nc2cc(N3CCN(C)CC3)nc(/C=C/c3ccccc3)n2)n[nH]1` + COc1ccc2c(c1)CCC1C2CCC2(C)C(NCCCCCCN3C(=O)C=CC3=O)CCC12 [U73122] (first compound 0.2 µM, partner dose 2 µM): 81.1%, 55.3%, 49.6% and 64.6%.
Regarding `Cc1cc(Nc2cc(N3CCN(C)CC3)nc(/C=C/c3ccccc3)n2)n[nH]1` + Oc1cc(-c2nc(-c3ccccc3)[nH]c2-c2ccncc2)ccc1Cl [L779450] (first compound 0.2 µM, partner dose 1 µM), the cell count with 501Mel was determined as 68.4%; in the experiment with A101D, 69.1%; in the experiment on A2058 it was 55.5%; with A375, 80.7%.
The matching figures for `CC(C)C[C@H](NC(=O)[C@H](Cc1ccccc1)NC(=O)c1cnccn1)B(O)O` [Bortezomib] + Cc1cc([N+](=O)[O-])ccc1NS(=O)(=O)c1cc(Cl)ccc1Cl [FH535] (first compound 0.005 µM, partner dose 5 µM): 4.97%, 7.44%, 27.5% and 76.5%.
For the compound `COc1ccc(C2=N[C@@H](c3ccc(Cl)cc3)[C@@H](c3ccc(Cl)cc3)N2C(=O)N2CCNC(=O)C2)c(OC(C)C)c1` [Nutlin-3] + Oc1cc(-c2nc(-c3ccccc3)[nH]c2-c2ccncc2)ccc1Cl [L779450] (first compound 0.5 µM, partner dose 1 µM), the cell count in the experiment on 501Mel came out at 60.7%; in the experiment with A101D, 51.9%; in the experiment with A2058, 113%; with A375, 91%.
The matching figures for `CC(C)C[C@H](NC(=O)[C@H](Cc1ccccc1)NC(=O)c1cnccn1)B(O)O` [Bortezomib] + CC(C)CCN1c2nc(Nc3cc(F)c(O)c(F)c3)ncc2N(C)C(=O)C1C [BID1870] (first compound 0.005 µM, partner dose 1 µM): 13.5%, 7.84%, 13.5% and 80.2%.
Take `Cc1cc(Nc2cc(N3CCN(C)CC3)nc(/C=C/c3ccccc3)n2)n[nH]1` + COC(=O)c1sccc1S(=O)(=O)Nc1ccc(Nc2ccccc2)cc1OC [GSK0660] (first compound 0.2 µM, partner dose 5 µM): the cell count came out at 82% in the experiment with 501Mel, 70.9% in the experiment with A101D, 86.1% in the experiment on A2058 and 74.3% with A375.
The matching figures for `Cc1cc(Nc2cc(N3CCN(C)CC3)nc(/C=C/c3ccccc3)n2)n[nH]1` + O=S(=O)(c1ccccc1)N(CC(F)(F)F)c1ccc(C(O)(C(F)(F)F)C(F)(F)F)cc1 [T0901317] (first compound 0.2 µM, partner dose 7 µM): 67.5%, 85.7%, 82.7% and 80.4%.
The matching figures for `Cn1c(=O)n(-c2ccc(C(C)(C)C#N)cc2)c2c3cc(-c4cnc5ccccc5c4)ccc3ncc21` + COc1ccc2c(c1)CCC1C2CCC2(C)C(NCCCCCCN3C(=O)C=CC3=O)CCC12 [U73122] (first compound 0.02 µM, partner dose 2 µM): 97.3%, 66.3%, 40.4% and 65.9%.
